# Assay results as given in article PMC12390733.
# No constants are given. Whether binding was seen depends on the method and setting. Binding seen in cells or lysates may run through a third protein. Some results given as binding are weak or reduced against the parent protein; the word gives no strength. Sequences can lack the tags named with a protein.
# Target: GFP-tagged SARS-CoV-2 nonstructural protein 3 (NSP3) (SARS-CoV-2) (UniProt P0DTD1)
# Assay: co-IP
binder,measurement,value
"Myc-tagged DNAJC11 (DnaJ homolog subfamily C member 11) (protein, UniProt Q9NVH1 1-559) MATALSEEELDNEDYYSLLNVRREASSEELKAAYRRLCMLYHPDKHRDPELKSQAERLFNLVHQAYEVLSDPQTRAIYDIYGKRGLEMEGWEVVERRRTPAEIREEFERLQREREERRLQQRTNPKGTISVGVDATDLFDRYDEEYEDVSGSSFPQIEINKMHISQSIEAPLTATDTAILSGSLSTQNGNGGGSINFALRRVTSAKGWGELEFGAGDLQGPLFGLKLFRNLTPRCFVTTNCALQFSSRGIRPGLTTVLARNLDKNTVGYLQWRWGIQSAMNTSIVRDTKTSHFTVALQLGIPHSFALISYQHKFQDDDQTRVKGSLKAGFFGTVVEYGAERKISRHSVLGAAVSVGVPQGVSLKVKLNRASQTYFFPIHLTDQLLPSAMFYATVGPLVVYFAMHRLIIKPYLRAQKEKELEKQRESAATDVLQKKQEAESAVRLMQESVRRIIEAEESRMGLIIVNAWYGKFVNDKSRKSEKVKVIDVTVPLQCLVKDSKLILTEASKAGLPGFYDPCVGEEKNLKVLYQFRGVLHQVMVLDSEALRIPKQSHRIDTDG",binding,binds
